Measurements published in the supplement of paper PMC12217912.
The other results are listed elsewhere or left out. Sequences were assembled here from the parent chain. Values near 0.05 are background.

B1: TEV protease; numbered along this chain (parent)
chain: MGESLFKGPRDYNPISSSICHLTNESDGHTTSLYGIGFGPFIITNKHLFRRNNGTLVVQSLHGVFKVKDTTTLQQHLVDGRDMIIIRMPKDFPPFPQKLKFREPQREERICLVTTNFQTKSMSSMVSDTSCTFPSGDGIFWKHWIQTKDGQCGSPLVSTRDGFIVGIHSASNFTNTNNYFTSVPKNFMELLTNQEAQQWVSGWRLNADSVLWGGHKVFMVKPEEPFQPVKEATQL

Variants of: B1
Assay: raw area under fraction-flipped curve 0-4 h after induction (AUC4h, not background-subtracted), DNA-recorder readout of cleavage of the substrate (dimensionless); higher = more cleavage of the substrate by the protease variant
Details: temperature: 34 °C; time window: 0-4 h after rhamnose induction
Description: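 In vivo DNA recorder in E. coli TOP10(DE3) ΔrhaA at 34 °C. Each TEVp single-site mutant (parent TEVp 0) is paired with a single-site variant of the 7-mer TEVs (canonical ENLYFQ|S). The substrate sits between flexible linkers in a Bxb1-sfGFP-TEVs-SsrA fusion, so cleavage stabilises Bxb1 and speeds flipping of a recombination array, read by NGS. The value is the raw area under the fraction-flipped curve over 0-4 h after rhamnose induction (AUC4h), with ≥20 reads per time point. It is not background-subtracted; inactive controls average about 0.047.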
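Note: Bxb1 expression induced with 0.2% (w/v) L-rhamnose at OD600 near 0.5, cultures sampled hourly, flipped fraction per protease–substrate barcode pair counted by paired-end Illumina sequencing.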

Row | Variant | area with substrate EALYFQS | area with substrate ECLYFQS | area with substrate EELYFQS | area with substrate EFLYFQS | area with substrate EILYFQS | area with substrate EKLYFQS | area with substrate EMLYFQS | area with substrate EQLYFQS | area with substrate ERLYFQS | area with substrate ESLYFQS | area with substrate ETLYFQS | area with substrate EVLYFQS | area with substrate EWLYFQS | area with substrate EDLYFQS | area with substrate EGLYFQS | area with substrate EHLYFQS | area with substrate ELLYFQS | area with substrate EPLYFQS | area with substrate EYLYFQS
1 | V113N | 0.073 | 0.0537 | 0.0863 | 0.0632 | 0.0571 | 0.0719 | 0.0659 | 0.0561 | 0.0612 | 0.0674 | 0.0655 | 0.0324 | 0.0566 |  |  |  |  |  | 
2 | T114M | 0.155 | 0.108 |  |  | 0.0866 | 0.123 |  | 0.117 | 0.0913 |  |  | 0.11 | 0.0771 | 0.117 | 0.0751 | 0.13 | 0.1 |  | 
3 | T115C | 0.12 | 0.111 | 0.126 |  | 0.0977 |  |  | 0.119 | 0.105 | 0.109 | 0.134 |  | 0.102 | 0.107 | 0.0911 | 0.1 |  | 0.12 | 0.11
4 | N116A | 0.115 | 0.0925 | 0.115 |  | 0.0942 | 0.11 | 0.131 | 0.108 |  | 0.0983 |  | 0.0491 |  | 0.0781 | 0.145 | 0.106 |  | 0.106 | 
5 | F117M | 0.104 | 0.0948 | 0.1 |  | 0.086 |  |  |  |  | 0.109 | 0.0903 |  |  |  |  | 0.103 |  |  | 
6 | Q118A | 0.107 | 0.119 | 0.119 |  | 0.0969 | 0.108 | 0.0818 | 0.0994 | 0.104 | 0.12 | 0.126 | 0.119 | 0.094 | 0.154 |  |  | 0.0932 | 0.121 | 0.114
7 | Q118F | 0.114 | 0.0924 | 0.101 |  | 0.0839 |  | 0.103 |  |  | 0.107 | 0.12 | 0.0931 | 0.107 | 0.131 | 0.0878 | 0.103 | 0.0939 | 0.118 | 
8 | Q118G | 0.128 | 0.103 |  | 0.0793 | 0.0946 | 0.0914 | 0.128 | 0.12 | 0.0418 | 0.112 | 0.112 | 0.111 | 0.1 | 0.13 | 0.0865 |  |  | 0.131 | 
9 | Q118H | 0.129 | 0.111 |  | 0.118 | 0.0764 | 0.119 |  |  |  | 0.102 | 0.153 |  |  | 0.107 |  | 0.112 |  | 0.102 | 
10 | Q118N | 0.116 | 0.0978 | 0.143 |  |  |  | 0.116 |  | 0.111 | 0.0945 | 0.0896 |  | 0.0851 |  | 0.11 |  |  | 0.131 | 
11 | K120L | 0.108 | 0.116 | 0.101 |  | 0.118 |  |  | 0.0886 |  | 0.0826 | 0.103 | 0.072 |  | 0.14 |  |  |  |  | 
12 | S121A | 0.104 | 0.109 | 0.115 | 0.0503 | 0.103 | 0.154 |  | 0.121 | 0.16 |  |  | 0.0981 |  |  |  | 0.0998 |  |  | 0.0996
13 | S121E | 0.101 | 0.0975 | 0.125 |  | 0.0905 |  |  | 0.137 |  |  |  |  | 0.0951 |  | 0.0917 |  |  | 0.0664 | 
14 | S121Y | 0.126 | 0.132 | 0.125 |  |  |  | 0.106 |  |  | 0.128 |  | 0.0782 |  |  | 0.0995 |  |  | 0.111 | 
15 | M122K | 0.129 | 0.0554 |  | 0.126 | 0.0871 | 0.109 |  | 0.114 |  | 0.0935 |  |  |  | 0.119 | 0.0767 |  |  |  | 
16 | M122P | 0.115 | 0.104 |  | 0.116 | 0.0989 | 0.121 | 0.136 | 0.131 | 0.121 | 0.106 |  | 0.0998 | 0.102 | 0.113 |  | 0.117 |  | 0.118 | 
17 | M122Y | 0.113 | 0.107 | 0.115 | 0.105 | 0.0928 | 0.125 | 0.0953 | 0.117 | 0.114 | 0.0875 | 0.115 | 0.0987 |  | 0.135 |  | 0.106 | 0.0749 | 0.127 | 
18 | S123T | 0.0907 | 0.0845 |  | 0.0842 | 0.0899 | 0.098 | 0.119 |  | 0.116 | 0.104 |  | 0.186 | 0.0786 | 0.077 |  |  | 0.071 |  | 
19 | M125L | 0.122 | 0.102 |  | 0.144 | 0.122 | 0.0979 | 0.129 | 0.113 | 0.118 | 0.122 |  |  | 0.106 | 0.104 |  |  | 0.0972 | 0.137 | 
20 | D128H | 0.129 | 0.13 |  |  | 0.13 | 0.128 |  | 0.116 | 0.13 | 0.135 |  |  |  | 0.151 | 0.115 |  | 0.114 |  | 
21 | T129P | 0.112 | 0.0928 | 0.0918 |  | 0.0803 | 0.0672 | 0.139 | 0.104 | 0.11 | 0.101 |  | 0.0855 | 0.0979 | 0.087 | 0.0877 | 0.0859 | 0.0891 |  | 0.0856
22 | T132F | 0.0673 | 0.0607 | 0.0688 | 0.051 | 0.0658 |  |  | 0.056 | 0.0551 | 0.0612 |  |  |  | 0.0634 | 0.0458 |  | 0.0804 | 0.064 | 0.0616
23 | T132G | 0.112 | 0.0844 | 0.0632 | 0.0983 | 0.0933 | 0.0763 | 0.09 | 0.0978 | 0.0798 | 0.0838 | 0.0857 | 0.0865 | 0.118 | 0.117 |  | 0.0604 | 0.103 |  | 0.0897
24 | T132S | 0.129 | 0.0991 |  |  | 0.0814 |  |  | 0.1 |  |  |  |  | 0.0818 | 0.104 | 0.0954 |  | 0.0862 |  | 
25 | T132Y | 0.056 | 0.0553 | 0.0492 | 0.0425 | 0.054 | 0.0531 | 0.0552 |  | 0.0507 |  |  |  | 0.054 |  |  | 0.0663 | 0.074 |  | 
26 | F133D | 0.145 | 0.0965 | 0.16 |  | 0.0931 | 0.108 | 0.126 | 0.105 | 0.0756 | 0.16 | 0.0932 | 0.033 | 0.0999 | 0.141 |  | 0.111 | 0.0839 |  | 
27 | P134E | 0.129 | 0.117 | 0.0865 | 0.081 | 0.0919 | 0.0578 |  | 0.0838 | 0.0934 | 0.0999 | 0.091 | 0.103 | 0.0753 |  | 0.0859 | 0.0901 |  | 0.147 | 
28 | P134L | 0.0963 | 0.0505 |  |  | 0.0885 |  | 0.0573 | 0.083 |  | 0.0603 |  | 0.118 | 0.0898 | 0.0718 |  |  |  | 0.0918 | 0.106
